Source: article PMC4336329 (PLoS ONE, 2015)
The whole screen tested about 310,000 compounds, of which about 14,000 (4.5%) showed an effect of 50% or more. Effects have a minus sign here. The list shows a part of the results.

biological target: human ether-à-go-go-related gene (hERG) potassium channel (human, UniProt Q12809); experiment: primary screen, population patch clamp on CHO cells stably expressing hERG
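Further: peak tail current of the secondary pulse compared with the same well before compound.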

Chain of human ether-à-go-go-related gene (hERG) potassium channel (Q12809 whole entry, looked up): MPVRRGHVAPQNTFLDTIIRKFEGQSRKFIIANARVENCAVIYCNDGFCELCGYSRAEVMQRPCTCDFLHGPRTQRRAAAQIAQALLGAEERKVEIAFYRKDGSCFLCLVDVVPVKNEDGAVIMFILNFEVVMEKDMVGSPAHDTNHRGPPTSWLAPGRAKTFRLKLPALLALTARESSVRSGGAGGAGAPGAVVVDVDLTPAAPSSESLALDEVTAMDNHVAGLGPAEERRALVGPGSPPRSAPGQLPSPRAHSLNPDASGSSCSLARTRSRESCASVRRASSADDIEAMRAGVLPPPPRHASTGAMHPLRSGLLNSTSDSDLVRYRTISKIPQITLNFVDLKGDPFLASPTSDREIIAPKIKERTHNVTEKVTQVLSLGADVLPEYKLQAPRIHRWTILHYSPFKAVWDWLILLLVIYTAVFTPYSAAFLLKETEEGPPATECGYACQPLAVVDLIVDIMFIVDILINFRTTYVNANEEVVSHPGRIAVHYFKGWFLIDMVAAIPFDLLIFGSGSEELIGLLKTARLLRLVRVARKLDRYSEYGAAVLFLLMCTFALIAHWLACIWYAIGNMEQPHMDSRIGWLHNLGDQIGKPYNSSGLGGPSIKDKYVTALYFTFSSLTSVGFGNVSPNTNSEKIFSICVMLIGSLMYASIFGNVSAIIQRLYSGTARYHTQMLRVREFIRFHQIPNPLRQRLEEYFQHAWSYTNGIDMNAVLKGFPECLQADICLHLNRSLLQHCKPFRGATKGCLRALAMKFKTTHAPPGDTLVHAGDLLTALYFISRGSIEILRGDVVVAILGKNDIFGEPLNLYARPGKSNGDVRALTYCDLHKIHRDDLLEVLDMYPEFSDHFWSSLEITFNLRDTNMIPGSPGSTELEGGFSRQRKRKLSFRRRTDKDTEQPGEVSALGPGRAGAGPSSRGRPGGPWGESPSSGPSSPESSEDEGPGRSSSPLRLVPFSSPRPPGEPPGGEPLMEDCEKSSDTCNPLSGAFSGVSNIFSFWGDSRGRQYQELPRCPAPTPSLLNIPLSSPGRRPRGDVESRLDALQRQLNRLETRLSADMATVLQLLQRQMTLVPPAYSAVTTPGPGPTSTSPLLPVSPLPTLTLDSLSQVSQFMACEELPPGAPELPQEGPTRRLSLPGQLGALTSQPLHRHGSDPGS

| Compound | hERG current change (%, negative = inhibition) at 10uM |
| --- | --- |
| COc1ccc([N+](=O)[O-])cc1NC(=S)NC(NC(=O)C(c1ccccc1)c1ccccc1)C(Cl)(Cl)Cl (stereo not drawn) | 2.68% |
| Cc1c(OC(C(=O)O)c2ccccc2)ccc2c(-c3ccccc3)cc(=O)oc12 (stereo not drawn) | 17.2% |
| O=C(c1cccs1)N1CCC(c2nc3ccccc3s2)CC1 | -57.2% |
| CC(=O)NC(Cc1c[nH]c2ccccc12)C(=O)O (stereo not drawn) | -2.58% |
| CCOc1ccc(NS(=O)(=O)c2ccc(C(=O)N(C)CC(=O)Nc3ccc(OC)cc3)cc2)cc1 | -13.4% |
| O=C(NCC1(c2ccccc2)CCCC1)c1ccco1 | -24.9% |
| O=[n+]1c2c(n([O-])c3cc(F)ccc31)CCCC2 | -12.5% |
| Cc1cc(C)n2nc(SCC(=O)NC(=O)NCc3ccco3)nc2n1 | 4.84% |
| C#CCOCCOCCOCCNc1nc(N2CCN(C(=O)CCCCCCCCCCNC(=O)[C@H](CCCCN)n3cc(CCCC(=O)O)nn3)CC2)nc(N2CCN(C(=O)CCCCCCCCCCNC(=O)[C@@H]([C@H](C)O)n3cc(C)nn3)CC2)n1 | 10.4% |
| Fc1ccc(-c2ccnc(=S)[nH]2)cc1 | 14.3% |
| COc1ccc(C(=O)Nc2ccc([N+](=O)[O-])cn2)c(OC)c1 | 4.61% |
| CCn1ccnc1CN(C)Cc1cn[nH]c1-c1ccc(F)cc1F | 6.01% |
| COCC(C)NC(=O)c1ccccc1OC(C)=O (stereo not drawn) | -0.476% |
| COc1ccccc1C(=O)NCCNC(=O)c1ccc(C)nc1 | 21.2% |
| Nc1nc2ccccc2n1/N=C/c1ccc(Br)cc1 | 6.68% |
| NC(=O)[C@@H]1CCCNc2c(I)cc([N+](=O)[O-])cc2C(=O)N[C@@H](Cc2ccccc2)C(=O)N[C@@H](Cc2cnc[nH]2)C(=O)N1 | 3.29% |
| COc1ccc(Cl)cc1NC(=S)Nc1ccccc1C | 8.13% |
| CCCN(CC(=O)Nc1ccccc1C)CC(=O)Nc1ccc(Br)cc1F | 9.92% |
| c1ccc(CN2CCC3(CC2)Nc2ccccc2S3)cc1 | 6.58% |
| COC(=O)c1ccccc1NC(=O)C1CCCN(S(C)(=O)=O)C1 (stereo not drawn) | -10.5% |
| O=C(c1ccc2c(c1)OCO2)N1CCN=C1SCc1cccnc1 | -4.43% |
| O=C(/C=C/c1ccccc1)N1CCCN(C(=O)/C=C/c2ccccc2)CC1 | -68.5% |

| Compound | hERG current change (%, negative = inhibition) at 10uM |
| --- | --- |
| COc1cc(C=O)ccc1OCCOCCOc1ccccc1Cl | -22.9% |
| O=C(CSC1=NCCS1)Nc1ccnc2ccccc12 | -5.91% |
| CC1CCN(Cc2nnnn2CCCC(=O)NCC(C)(C)N2CCOCC2)CC1 | 2.01% |
| CCOC(=O)c1nnc2cc(-c3ccccc3)nn2c1C | -0.314% |
| CNc1ccc(Br)cc1C(O)c1ccccc1 (stereo not drawn) | -3.18% |
| CCOc1ccc(N(CC(=O)NC2CCCC2)S(=O)(=O)c2c(C)noc2C)cc1 | 0.325% |
| COc1ccc(Oc2c(Cl)cnn(-c3ccc(C)cc3)c2=O)cc1 | -18.5% |
| Nc1nc(NCc2ccco2)nc(N2CCOCC2)c1[N+](=O)[O-] | 3.68% |
| Cc1ccnc(NS(=O)(=O)c2ccc(NC(=O)c3oc4ccccc4c3C)cc2)n1 | 10.2% |
| CNC(=O)c1ccsc1NC(=O)c1ccccc1 | -29.8% |
| CCCCc1cc(=O)oc2cc(OCC(=O)N[C@@H](Cc3ccccc3)C(=O)O)ccc12 | 6.13% |
| COc1ccc(CN2C(=O)NC3(CCCCCC3)C2=O)cc1F | -7.56% |
| COc1ccccc1NS(=O)(=O)c1cc(NC(=O)CNC(=O)c2cc(C)cc(C)c2)ccc1C | -3.94% |
| COc1ccc2nc3cc(Cl)ccc3c(C#N)c2c1 | -4.48% |
| Cc1ccc(NC(=O)CN(C)C(=O)COc2c(Cl)cc(Cl)c3ccc(C)nc23)cc1 | -31.2% |
| Cc1ccc2[nH]c(=O)c(N3CCOCC3)c(-c3ccccc3)c2c1 | 12.6% |
| Cc1ccnc(SCC(=O)N2CCN(C(c3ccccc3)c3ccccc3)CC2)n1 | -18.5% |
| O=C(O)CSc1nc2ccccc2c(=O)[nH]1 | 3.54% |
| CCC(C)(C)NC(=O)C(c1cccc(OC)c1)N(C(=O)CNC(=O)c1cccs1)c1cccnc1 (stereo not drawn) | 12.7% |
| CCN(CC)S(=O)(=O)c1cc(NC(=O)c2cc([N+](=O)[O-])ccc2N2CCOCC2)ccc1C | -20.5% |
| Cc1ccc(C(=O)OCC(=O)Nc2ccc3c(c2)OCO3)o1 | 16.5% |
| Cc1ccc(CN2CC(C(=O)O)CC2=O)cc1 (stereo not drawn) | 6.55% |

| Compound | hERG current change (%, negative = inhibition) at 10uM |
| --- | --- |
| CCOC(=O)C1C(=O)C=C(c2ccc(NS(C)(=O)=O)cc2)CC1c1ccco1 (stereo not drawn) | -80.3% |
| O=S(=O)(Nc1cc(S(=O)(=O)N2CCOCC2)ccc1N1CCOCC1)c1ccc2c(c1)OCCO2 | 7.99% |
| Nc1nc(Nc2cccc(Cl)c2)nc(NCCO)c1[N+](=O)[O-] | -37.6% |
| O=c1c2ccccc2nc(COc2ccccc2)n1/N=C/c1cc([N+](=O)[O-])ccc1O | 0.659% |
| c1ccc(Cn2nnc3c(N4CCOCC4)ncnc32)cc1 | 2.85% |
| Cc1ccc([N+](=O)[O-])cc1-c1[nH]c(-c2ccc(O)c(O)c2)nc1-c1ccccc1 | -1.31% |
| Cc1cc(CSc2ccccc2)ccc1NC(=O)c1ccc(Br)cc1 | -3.72% |
| Cc1ccc(-c2nnn(CC(=O)N3CCCCC3)n2)cc1 | 3.07% |
| O=C(Nc1ccccc1N1CCN(C(=O)c2ccccc2)CC1)c1ccccc1Cl | -78.8% |
| O=C(CCC(=O)N1CCOCC1)Nc1ccc(Cl)c(Cl)c1 | 0.392% |
| CCOc1ccc(NC(=S)N(CCCN2CCCC2)Cc2cccn2Cc2ccc(Cl)cc2)cc1 | -58.4% |
| O=C(Nn1cnnc1)c1ccc([N+](=O)[O-])cc1 | 25.9% |
| COc1ccccc1CNC(=O)C(=O)Nc1ccc(C(=O)N2CCC(C)CC2)cc1 | -7.35% |
| Cc1onc(-c2c(Cl)cccc2Cl)c1COC(=O)c1ccc([N+](=O)[O-])cc1 | 8.05% |
| COc1ccc(-c2nc(CS(=O)CC(=O)NCCc3ccc(C)cc3)c(C)o2)cc1OC (stereo not drawn) | -3.12% |
| Cc1cc(N(CC(=O)NC(C)C)S(C)(=O)=O)ccc1Br | 16.4% |
| CC(C)C(=O)NC(=S)/C=C1/N(C)c2ccccc2C1(C)C | -1.42% |
| COc1ccc(NC(=O)Cc2coc3ccc4ccccc4c23)cc1S(=O)(=O)N1CCOCC1 | -14.8% |
| O=C(NCc1cccnc1)C(=O)Nc1nc2ccccc2s1 | 3.9% |
| Cc1ccc(C(C)NC(=O)COC(=O)C2=COCCO2)cc1C (stereo not drawn) | -10.5% |
| CC(C)Oc1ccccc1C1Nc2ccccc2C(=O)N1c1ccc2c(c1)OCCO2 (stereo not drawn) | 3.43% |
| CC1Cc2ccccc2N1C(=O)CSc1nnnn1C(C)C (stereo not drawn) | -2.17% |

| Compound | hERG current change (%, negative = inhibition) at 10uM |
| --- | --- |
| Cc1cc(C)nc(SCCn2c(N3CC(C)OC(C)C3)nc3c2c(=O)n(C)c(=O)n3C)n1 (stereo not drawn) | 6.38% |
| COc1cc(/C=N/NC(=O)c2cc3ccccc3[nH]2)ccc1O | 6.64% |
| CCOc1ccc(CN(C)C(=O)CNC(=O)C2CCCCC2)cc1 | 16.8% |
| O=C(N/N=C/c1cccn1-c1ccccc1)c1ccncc1 | 26.2% |
| CCn1c(CN2c3ccccc3Sc3ccccc32)n[nH]c1=S | 20.8% |
| O=C(O)c1cccc(-c2nc3ccccc3[nH]2)c1 | 0.57% |
| COc1ccc(CNC(=O)c2cccnc2Sc2ccc(Cl)cc2)cc1 | -1.59% |
| CCOc1ccc(-c2nc(N)ncc2Oc2ccccc2Br)c(O)c1 | 10.3% |
| COc1ccc(OCCCSc2ncccn2)cc1 | -6.26% |
| CCc1ccccc1Cn1c(=O)oc2cccnc21 | 8.11% |
| Cc1ccc2c(C)c(C(=O)NCc3ccc(S(N)(=O)=O)cc3)oc2c1 | 18.5% |
| Nn1c(SCc2cccc3ccccc23)nnc1-c1ccco1 | -11.4% |
| O=C(/C=C/c1ccco1)N1CCN(c2ccccc2)CC1 | -1.71% |
| CC(C)C1Nc2ccc(C(=O)NC3CCCCC3)cc2NC1=O (stereo not drawn) | 11.6% |
| COc1cccc(NC(=O)C(Cc2ccccc2)NC(=O)C2CCC(C)CC2)c1 (stereo not drawn) | -11.8% |
| CC1CN(C(=O)c2ccc(Br)c(S(=O)(=O)N3CCOCC3)c2)CC(C)O1 (stereo not drawn) | 1.59% |
| COc1ccc(CN(C)C(=O)CCCNC(=O)c2ccc(Cl)cc2)cc1 | -26.6% |
| CCCCN(N=Nc1nonc1OC)c1nonc1OC | -3.98% |
| S=c1[nH]nc(Cc2ccccc2)n1-c1ccccc1 | 22.9% |
| CCOC(=O)COc1ccc(S(=O)(=O)NCCC2=CCCCC2)cc1 | -4.87% |
| Cc1cc(NC(=O)CC(CN(C)S(=O)(=O)c2ccccc2)c2ccccc2)no1 (stereo not drawn) | -35% |
